The supplement of paper PMC3334620
The full ranking holds about 33,000 sequences; the median of “E-score (-0.5 to 0.5)” is about -0.021, and the highest 2% start at about 0.32. This is one part of the list.

target: T1, Zap1 (UniProt P47043); test: PBM E-score (8-mer binding enrichment) (E-score (-0.5 to 0.5)); higher = stronger / more preferred TF binding; most listed sequences are background and not binding sites; conditions: protein concentration: 200 nM; construct: GST-full length
T1 sequence: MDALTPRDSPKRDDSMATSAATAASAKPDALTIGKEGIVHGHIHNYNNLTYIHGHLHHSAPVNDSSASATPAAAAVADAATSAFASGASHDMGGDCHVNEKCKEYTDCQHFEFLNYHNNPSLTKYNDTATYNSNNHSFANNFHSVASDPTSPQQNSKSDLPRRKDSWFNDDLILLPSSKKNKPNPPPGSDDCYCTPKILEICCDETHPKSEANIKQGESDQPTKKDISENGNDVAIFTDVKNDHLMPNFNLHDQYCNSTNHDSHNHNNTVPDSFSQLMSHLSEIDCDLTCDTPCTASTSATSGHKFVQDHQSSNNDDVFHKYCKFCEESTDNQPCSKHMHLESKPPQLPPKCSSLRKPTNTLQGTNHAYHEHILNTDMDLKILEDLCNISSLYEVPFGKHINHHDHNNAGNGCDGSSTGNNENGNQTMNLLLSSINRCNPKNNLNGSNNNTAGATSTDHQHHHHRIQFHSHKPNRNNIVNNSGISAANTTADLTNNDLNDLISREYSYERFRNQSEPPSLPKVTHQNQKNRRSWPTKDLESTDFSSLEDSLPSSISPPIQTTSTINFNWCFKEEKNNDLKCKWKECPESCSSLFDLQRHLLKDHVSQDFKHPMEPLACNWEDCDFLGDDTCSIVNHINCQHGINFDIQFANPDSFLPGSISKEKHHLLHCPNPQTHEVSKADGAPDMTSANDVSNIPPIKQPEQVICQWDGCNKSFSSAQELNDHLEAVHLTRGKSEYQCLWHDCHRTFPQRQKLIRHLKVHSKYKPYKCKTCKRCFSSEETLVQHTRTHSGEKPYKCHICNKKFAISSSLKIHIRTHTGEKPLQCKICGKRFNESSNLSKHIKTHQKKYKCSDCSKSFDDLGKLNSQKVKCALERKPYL
Method in brief: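 The E-score, a modified Wilcoxon-Mann-Whitney statistic, was computed by the Universal PBM Analysis Suite for every ungapped eight-base word pooled with its reverse complement. Scans behind it were normalised with masliner after bound GST-tagged yeast transcription factors were detected with fluorescent anti-GST. The proteins, at about 100-200 nM, had been applied to universal all-10-mer Agilent arrays made double-stranded by primer extension.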

In order of falling “PBM E-score” value:
1. GGGTTACC  0.463
2. AATAACCA  0.445
3. CGGGGTCA  0.332
4. ACAACCCC  0.321
5. AACCTTAT  0.312
6. AACCTCTG  0.306
7. GGTTAATA  0.302
8. GGTACTAA  0.278
9. AAGAAGGT  0.269
10. ACCGGTAC  0.256
11. CTATATAC  0.249
12. GGGTTTAA  0.242
13. ATCAAACC  0.242
14. AATACAGG  0.24
15. CCCGAAAG  0.233
16. ATTCTAAC  0.228
17. GTGTTTAA  0.212
18. GATGGTAC  0.199
19. GTTGCTAA  0.196
20. ACCATAGT  0.178
21. ATGGTATA  0.177
22. TAGATATA  0.172
23. AACGAGTA  0.172
24. ATTTCCCA  0.17
25. CCCTGTGA  0.17
26. AAAGAAAA  0.158
27. TTGACAAA  0.153
28. ACTCCGGA  0.153
29. GACATTAA  0.15
30. AATCAAAC  0.15
31. GGAAGTTA  0.142
32. CTTACCAC  0.14
33. GTAAACAA  0.139
34. CCACTTAC  0.134
35. AATAGATC  0.131
36. AGACTACC  0.13
37. GCGGTACA  0.13
38. ACCTGATA  0.13
39. AACGGATA  0.129
40. AAGTGATT  0.128
41. GAAACGAA  0.127
42. ATATAAAC  0.127
43. CGTCCATA  0.125
44. ATGATTAC  0.124
45. CCGCCAAA  0.124
46. GGCCACCA  0.123
47. ACAATGAT  0.118
48. TCTAAAGA  0.117
49. CCCAATTA  0.116
50. AATACAAC  0.113
51. TCCACGAA  0.111
52. CGTGCAAC  0.111
53. CCATTATC  0.109
54. CCCTCCCA  0.105
55. CTACCGCC  0.103
56. AAAATATG  0.102
57. ACACGAGT  0.0998
58. CCTGTTAC  0.0992
59. AACAAGTA  0.0972
60. ACTACAAT  0.094
61. ATGTTGAA  0.0888
62. AGACCAAG  0.0881
63. AAAAGTCC  0.0858
64. CGCGAGGC  0.0814
65. CGGAATTA  0.08
66. ATAACATC  0.0786
67. ACGCAAAT  0.0769
68. AACAGATC  0.0769
69. GGTTCATA  0.0735
70. GAAATCCA  0.0709
71. TAATCAGA  0.0679
72. GTGAGGAA  0.0674
73. CCAACAGG  0.0645
74. ACGATTAG  0.0616
75. AATAATGA  0.0602
76. AAATAAAA  0.0597
77. GTGGCTAA  0.0596
78. TATCCCCA  0.0588
79. ATTGCAAG  0.0585
80. CTACAGGA  0.0575
81. AACTACAC  0.0497
82. GTTGGCTA  0.0491
83. GCTTACGA  0.0406
84. GTCGGTAA  0.0399
85. AATTTACA  0.0396
86. ATAACACG  0.0377
87. GCAAAAGA  0.0371
88. ATAACGGA  0.0366
89. CCCCTTAC  0.0357
90. CTAACGAA  0.0353
91. AGTTTCAA  0.0343
92. GGCGCGCC  0.0298
93. AGAAGGCC  0.0295
94. CTGCCAAA  0.0278
95. AAGTCATC  0.0259
96. CTGTGAAG  0.0227
97. GAATGCAA  0.0208
98. AAGCGGTC  0.0193
99. GTCTTAGA  0.0182
100. CTCACGTC  0.0181
101. GTTGCGAA  0.0158
102. GAATAGTC  0.0144
103. GGAAAGAA  0.00738
104. GTTCAATA  0.00661
105. CGTCTCAA  0.00424
106. GAAGTGAC  -0.00157
107. ACGATCCC  -0.00345
108. CCCCTCCA  -0.00574
109. GAAAATGA  -0.00655
110. GGGTGAAC  -0.00761
111. CTATAACA  -0.0126
112. ATAGACCG  -0.0134
113. AAGGCTAT  -0.0179
114. CATGAGGA  -0.0216
115. CCCGTTCA  -0.0223
116. GACTTTTA  -0.0234
117. CGTGAAAC  -0.0245
118. CTTTCTTA  -0.0292
119. CGTGGATA  -0.0309
120. GCCAATTA  -0.0384
121. AGATCACA  -0.0473
122. CCCCACGA  -0.0491
123. CCCCCCGG  -0.0499
124. CATGTGGC  -0.0501
125. ACATGAAT  -0.0503
126. GAGGAATC  -0.0505
127. ATACGCGG  -0.0533
128. CCACATGA  -0.0552
129. CCAGTCAA  -0.0553
130. TGCGCCAA  -0.0562
131. GTAATAGA  -0.06
132. AGTACGCG  -0.0604
133. CAAAAGTC  -0.0615
134. CATTTCAC  -0.0644
135. AGCCAGTA  -0.0664
136. AAATGATC  -0.0669
137. ACGCGCCC  -0.0682
138. GCTGCTAA  -0.0685
139. CCTTAGCC  -0.0691
140. GCGTAATA  -0.0701
141. ATAGCCTA  -0.0718
142. ACGGGCAC  -0.0743
143. AGATAGGG  -0.0822
144. ATGCGAAT  -0.0864
145. CAATTGTA  -0.0869
146. ACATTCAG  -0.0921
147. AAGATCCA  -0.0922
148. AAACGAGT  -0.0933
149. CTGTTCGA  -0.0941
150. AGTATACG  -0.0954
151. GCGGTATA  -0.0994
152. GTGTCTTA  -0.102
153. GCCCTCAC  -0.102
154. ATGGGAAA  -0.107
155. CATCTGCC  -0.109
156. CGGGACTA  -0.115
157. AGAGATCC  -0.116
158. ATGCTTCG  -0.117
159. ATTCCTCC  -0.117
160. AACTGCTC  -0.117
161. CGCTCTCC  -0.119
162. CACTCCAA  -0.126
163. AGATTCCC  -0.127
164. AGGCAGAA  -0.127
165. TGGCGCCA  -0.128
166. CAGGACCG  -0.133
167. AGGCTTAT  -0.135
168. CTTCCGGA  -0.136
169. TACAGCTA  -0.137
170. CGCCATCC  -0.137
171. ATCCAGTC  -0.137
172. ACTGGGTC  -0.143
173. TCGGGCAA  -0.144
174. CTAGCCGC  -0.147
175. CAATAGCA  -0.148
176. ATCAGATC  -0.151
177. CAGCTGGG  -0.154
178. CTTCGCTC  -0.156
179. TGGAGGAA  -0.158
180. AGACAGCG  -0.161
181. CTCAATGC  -0.168
182. ACGATGGG  -0.169
183. ACGTTTAG  -0.172
184. ACAATCGT  -0.176
185. CGATCTAC  -0.177
186. GCTATACA  -0.178
187. ACGTTCAG  -0.188
188. CCGTGCCC  -0.189
189. CGAAGGGC  -0.193
190. CGAACAGC  -0.193
191. AGAGCAAG  -0.196
192. CGATTCTA  -0.199
193. AAGAACGG  -0.199
194. CGTGTGTC  -0.201
195. ACAGGATC  -0.203
196. AGCACACT  -0.204
197. CCAGTCCG  -0.204
198. CCAAGCGG  -0.206
199. AGGGACTG  -0.209
200. CGATAAGC  -0.211
201. AGTCCACT  -0.213
202. AGCTCCTC  -0.225
203. GCATAGCC  -0.229
204. AGTCGGCC  -0.233
205. ATAGCCCG  -0.237
206. AACGATGC  -0.245
207. CTGCCGTC  -0.247
208. CCTGGGAC  -0.25
209. CTCCGCAC  -0.254
210. CGCACGGC  -0.259
211. AGGCATCC  -0.259
212. ACTACGCC  -0.269
213. CGACTTGC  -0.275
214. CCTGGGGC  -0.284
215. CTGTTGCC  -0.317
216. GACTCGGC  -0.356
217. CGGGCTCC  -0.363
218. AAAGGGGG  -0.385
219. ATAGCTCC  -0.411
